Results as given in PubChem BioAssay AID488969 (Vanderbilt High Throughput Screening Facility, 2010).
Over roughly 110,000 compounds, “z-score” has its median near -0.1; the highest 2% begin near 2. This is one part of the list. Active and inactive are the calls of the source.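 The calls were made as follows: active = z-score in the third read window above 3 or below -3; inactive = the rest.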

target: Metabotropic glutamate receptor 8 (Rattus norvegicus) (UniProt P70579); test: mGluR8 Gi/Go-coupled signaling modulation – cell-based, rat, thallium flux, HTS, primary screen (AID 488969); conditions: HEK293 rat mGluR8, GIRK (G protein-gated inwardly rectifying potassium channel) thallium flux, FluoZin2; at 10 µM; stronger effect = higher value; submaximal glutamate (EC20) added with thallium
Chain of UniProt P70579 (P70579 whole entry, looked up): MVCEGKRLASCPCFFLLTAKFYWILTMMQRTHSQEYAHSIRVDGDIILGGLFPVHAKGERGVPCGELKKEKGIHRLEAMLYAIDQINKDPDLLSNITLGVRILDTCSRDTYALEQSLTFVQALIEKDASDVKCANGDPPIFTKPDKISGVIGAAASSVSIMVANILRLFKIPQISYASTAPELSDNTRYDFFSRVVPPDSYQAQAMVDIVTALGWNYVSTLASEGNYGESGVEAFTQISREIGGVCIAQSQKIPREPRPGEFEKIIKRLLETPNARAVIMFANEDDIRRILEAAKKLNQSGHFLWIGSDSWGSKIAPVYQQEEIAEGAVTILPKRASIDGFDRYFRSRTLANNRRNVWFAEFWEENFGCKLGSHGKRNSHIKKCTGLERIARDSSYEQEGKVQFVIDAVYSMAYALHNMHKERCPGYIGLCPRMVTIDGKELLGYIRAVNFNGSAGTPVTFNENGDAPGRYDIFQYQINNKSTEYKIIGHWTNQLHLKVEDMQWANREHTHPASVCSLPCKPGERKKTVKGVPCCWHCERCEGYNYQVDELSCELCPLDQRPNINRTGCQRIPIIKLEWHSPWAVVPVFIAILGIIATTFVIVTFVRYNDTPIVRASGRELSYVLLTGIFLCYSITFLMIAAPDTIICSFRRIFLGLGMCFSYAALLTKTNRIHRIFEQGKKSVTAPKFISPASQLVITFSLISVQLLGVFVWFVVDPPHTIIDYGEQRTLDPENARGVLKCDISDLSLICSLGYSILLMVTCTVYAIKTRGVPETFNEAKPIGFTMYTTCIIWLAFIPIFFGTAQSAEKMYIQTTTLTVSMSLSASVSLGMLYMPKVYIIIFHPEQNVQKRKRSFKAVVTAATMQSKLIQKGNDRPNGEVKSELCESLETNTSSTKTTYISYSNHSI

| Structure (SMILES) | z-score |
| --- | --- |
| O=C(C[n+]1cc2ccccc2c2ccccc21)c1ccccc1 | -0.107 |
| Cc1cc(C(=O)CSc2n[nH]c(N)n2)c(C)n1-c1ccccc1 | -0.321 |
| OC1(c2ccccc2)CN(c2ccccc2)C2=[N+]1CCS2 (stereo unspecified) | -0.308 |
| CCC(=O)N(CCC1(C(C)C)CCOC(C)(C)C1)Cc1ccco1 (stereo unspecified) | 0.0457 |
| Clc1cccc(OCCN2CCNCC2)c1 | -0.084 |
| CC1Cc2ccccc2N1C(=O)CSc1nc2ccccc2n1CC(=O)N1CCOCC1 (stereo unspecified) | 0.204 |
| O=C(Nc1cccc(C(=O)N2CCCCCC2)c1)c1ccco1 | -0.104 |
| COc1ccc(Cn2nnnc2C(c2ccc(F)cc2)N2CCN(C3CCCC3)CC2)cc1 (stereo unspecified) | active: 3.92 |
| O=C(NCC1(c2ccccc2)CCCC1)c1ccc(Br)cc1 | -0.348 |
| Cc1ccc(C(=O)/C=C/NCc2ccc(F)cc2)cc1 | 0.0722 |
| CCn1c2ccccc2c2cc(NC(=O)CSc3nnc(-c4cccc(C)c4)o3)ccc21 | -0.209 |
| COc1nc(-c2ccc(Cl)cc2)ccc1-c1noc(-c2cccs2)n1 | -0.0452 |
| COc1cccc(NC2=NC3(CCCCC3)N=C(N)N2)c1 | -0.198 |
| COC(=O)c1cc(NS(=O)(=O)c2ccc(NCc3cccnc3)c([N+](=O)[O-])c2)cc(C(=O)OC)c1 | -0.148 |
| Cc1csc(NC(=O)C2CCN(S(=O)(=O)c3ccc4c(c3)oc(=O)n4C)CC2)n1 | -0.126 |
| Cc1c(CC(=O)O)c(=O)oc2cc(OCc3nn[nH]n3)ccc12 | -0.0529 |
| O=C(C1c2ccccc2C(=O)N2CCc3ccccc3C12)N1CCN(Cc2ccccc2)CC1 (stereo unspecified) | -0.168 |
| O=C(N/N=C/C=C/c1ccccc1)c1cc2c(ccc3ccccc32)o1 | -0.171 |
| CN(/N=C/c1cccs1)c1cc(=O)n(C)c(=O)[nH]1 | -0.167 |

| Structure (SMILES) | z-score |
| --- | --- |
| CC1(C)Cc2c(c(N3CCCC3)[nH]c(=S)c2C#N)CO1 | -0.368 |
| CCN(CC)S(=O)(=O)c1ccc(/C=C/C(=O)Nc2cccc(F)c2)cc1 | -0.186 |
| CCOC(=O)c1c(C)c(-c2ccccc2)n(CC(=O)NCCC(C)C)c1C | -0.264 |
| O=C(NC1CCCCC1)N(Cc1ccc(F)cc1)Cc1nc2ccccc2c(=O)[nH]1 | -0.385 |
| CC1CCCC(NC(=O)CSc2ncccc2C(=O)O)C1C (stereo unspecified) | 0.422 |
| Cc1nn(Cc2ccc(Cl)cc2Cl)c(C)c1NC(=O)c1sc2ccccc2c1Cl | 0.1 |
| Nc1ccccc1N1CCN(C(=O)c2ccccc2)CC1 | 1.12 |
| Cc1ccc(O)c(-c2cc(C(=O)NCc3ccncc3)[nH]n2)c1 | -1.24 |
| Cc1ccc(C)c(NC(=O)c2ccc[n+](Cc3ccc([N+](=O)[O-])cc3)c2)c1 | 0.037 |
| COc1ccccc1NS(=O)(=O)c1cccc(NC(=O)Cc2cccs2)c1 | 1 |
| C=CCN(N=Nc1cccc([N+](=O)[O-])c1)c1cccc([N+](=O)[O-])c1 | -0.186 |
| Cc1ccc(C)c(CSc2nnc([C@@H](N)C(C)C)o2)c1 | 0.564 |
| CCOc1ccc(CCNC(=O)CSc2nn(-c3ccc(C)c(Cl)c3)c(=S)s2)cc1OCC | -2.23 |
| O=C(Nc1ccccc1)c1cccc(N2C(=O)CCC2=O)c1 | -0.0312 |
| COc1cccc(CNc2ccc(S(=O)(=O)Nc3nccs3)cc2)c1O | 0.255 |
| Cc1cc(NC(=O)CSc2nccn2-c2ccc(F)cc2)no1 | -0.0255 |
| CCCCCOC(=O)C1=C(C)Nc2nnnn2C1c1ccc(OC)c(OC)c1OC (stereo unspecified) | -0.249 |
| O=C(NC1CC2CCC1C2)C1COc2ccccc2O1 (stereo unspecified) | -0.23 |
| CCCc1cc(NCC2CCCO2)n2c(nc3ccccc32)c1C#N (stereo unspecified) | -1.08 |

| Structure (SMILES) | z-score |
| --- | --- |
| Cc1cc(OC(C)C)nc(NCc2ccccc2)n1 | 0.122 |
| O=C(c1ccco1)N1CCN(Cc2ccccc2C(F)(F)F)CC1 | 0.0757 |
| COc1ccc(OCCCC(=O)Nc2nncs2)cc1 | 0.126 |
| CCCC/C(C)=N/NC(=O)c1cn(-c2ccccc2)nc1-c1ccccc1 | 0.374 |
| O=C(Nc1cccc2ncccc12)c1ccc(-c2ccc(Br)cc2)o1 | -0.163 |
| Cc1cc(C)c(C)c(OCC(=O)N2CCCCCC2)c1 | -0.279 |
| CCN(CC)C(=O)C1CCC(C)(C(=O)O)C1(C)C (stereo unspecified) | -0.15 |
| O=C(Cc1cn2ccsc2n1)Nc1nc2c(s1)CCCC2 | 0.758 |
| COc1ccc(S(=O)(=O)N2CCOCC2)cc1N=Nc1sc(N)nc1-c1ccccc1 | -0.00831 |
| O=S(=O)(c1ccc(Cl)cc1)N1CCC(n2cnc3cc(C(F)(F)F)ccc32)CC1 | -0.234 |
| O=S(=O)(NC1CCCC1)c1ccc(Br)s1 | -0.0206 |
| N#CCCn1c(SCC(=O)NCc2ccco2)nc2ccccc21 | 0.191 |
| CCCn1c(CCc2ccccc2)nnc1SCC(=O)N1CCCC1 | 0.269 |
| O=C(Nc1ccc([N+](=O)[O-])cc1Br)c1cccnc1 | 0.0191 |
| O=[N+]([O-])c1cn(Cc2ccccc2)cn1 | -0.255 |
| CCOc1ccc(-c2nn[nH]n2)cc1 | -0.269 |
| CCN(CC)C(=O)c1ccc(S(=O)(=O)NCc2cccnc2)cc1 | -0.362 |
| O=C(Nc1cccc(C(=O)N2CCCC2)c1)c1ccccc1Cl | -0.0275 |
